# Measurements taken from patent publication US20060135770A1, “PARP inhibitors” (Kudos Pharmaceuticals Ltd., priority 2004, published 2006).
# Target: Mammalian PARP, isolated from Hela cell nuclear extract (Homo sapiens, UniProt P09874)
# Test: PARP inhibition FlashPlate assay (3H-NAD incorporation, scintillation counting)
# Type: biochemical
# Experimental: In order to assess the inhibitory action of the compounds, the following assay was used to determine IC50 values or percentage inhibition at a given concentration.
# The total assay volume per well was 40 μl.
# After 10 minutes incubation at 30° C. the reactions were initiated by the addition of a 10 μl reaction mixture, containing NAD (5 μM), ^3H-NAD and 30mer double stranded DNA-oligos. Designated positive and negative reaction wells were done in combination with compound wells (unknowns) in order to calculate % enzyme activities. The plates were then shaken for 2 minutes and incubated at 30° C. for 45 minutes.
# Following the incubation, the reactions were quenched by the addition of 50 μl 30% acetic acid to each well. The plates were then shaken for 1 hour at room temperature.
# The plates were transferred to a TopCount NXT (TRADE MARK) (Packard, UK) for scintillation counting. Values recorded are counts per minute (cpm) following a 30 second counting of each well.
# The % enzyme activity for each compound is then calculated using the following equation: [formula] […] Such IC50 values are used as comparative values to identify increased compound potencies.
# [1] = PARP enzyme activity, NAD 5 μM, 30° C., read-out: IC50
Compound,IC50 [1] [nM],IC50 [nM]
CC(Oc1ccccc1)C(=O)N1CCN(C(=O)c2cccc(COc3ccccc3C(N)=O)c2)CC1 (centres unmarked) [Compound 53],< 100,–
NC(=O)c1ccccc1OCCc1cccc(C(=O)N2CCN(C(=O)Nc3ccccc3F)CC2)c1 [Compound 141],< 100,–
Cn1nc(C(F)(F)F)c2cc(C(=O)N3CCN(C(=O)c4cccc(COc5ccccc5C(N)=O)c4)CC3)sc21 [Compound 61],< 500,–
NC(=O)c1ccccc1OCCc1cccc(C(=O)N2CCN(S(=O)(=O)c3cccc(-c4cnco4)c3)CC2)c1 [Compound 159],< 500,–
CC(C)(C)CCNC(=O)c1cccc(COc2ccccc2C(N)=O)c1 [Compound 5],< 10000,–
Cc1cccc(CCC(=O)N2CCN(C(=O)c3cccc(COc4ccccc4C(N)=O)c3)CC2)c1 [Compound 57],< 500,–
NC(=O)c1ccccc1OCc1cccc(C(=O)N2CCN(C(=O)Nc3cc(C(F)(F)F)cc(C(F)(F)F)c3)CC2)c1 [Compound 33],< 500,–
NC(=O)c1ccccc1OCc1cccc(C(=O)N2CCN(C(=O)Nc3ccc(C(F)(F)F)cc3)CC2)c1 [Compound 29],< 100,–
Cc1nn(C)c(Oc2cccc(C(F)(F)F)c2)c1C(=O)N1CCN(C(=O)c2cccc(COc3ccccc3C(N)=O)c2)CC1 [Compound 60],< 1000,–
NC(=O)c1ccccc1OCc1cccc(C(=O)NC2CCCCC2)c1 [Compound 9],< 10000,–
NC(=O)c1ccccc1OCc1cccc(C(=O)N2CCN(C(=O)c3ccccc3)CC2)c1 [Compound 45],< 500,–
CC(C)NC(=O)c1cccc(COc2ccccc2C(N)=O)c1 [Compound 17],< 10000,–
NC(=O)c1ccccc1OCc1cccc(C(=O)NCCN2CCCCC2)c1 [Compound 8],< 10000,–
CN(C)CCNC(=O)c1cccc(COc2ccccc2C(N)=O)c1 [Compound 18],< 10000,–
CCCCNC(=O)c1cccc(COc2ccccc2C(N)=O)c1 [Compound 13],< 10000,–
NC(=O)c1ccccc1OCc1cccc(C(=O)NCc2ccco2)c1 [Compound 15],< 1000,–
NC(=O)c1ccccc1OCc1cccc(C(=O)NCC2CCCO2)c1 (centres unmarked) [Compound 12],< 10000,–

Compound,IC50 [1] [nM],IC50 [nM]
CC(C)(C)NC(=O)N1CCN(C(=O)c2cccc(COc3ccccc3C(N)=O)c2)CC1 [Compound 27],< 1000,–
CC(Oc1ccccc1)C(=O)N1CCN(C(=O)c2cccc(COc3c(F)cccc3C(N)=O)c2)CC1 (centres unmarked) [Compound 116],< 1000,–
NC(=O)c1ccccc1OCCc1cccc(C(=O)N2CCN(S(=O)(=O)c3ccc(Cl)cc3)CC2)c1 [Compound 152],< 500,–
CC(C)CCNC(=O)c1cccc(COc2ccccc2C(N)=O)c1 [Compound 6],< 10000,–
COc1ccccc1NC(=O)N1CCN(C(=O)c2cccc(COc3ccccc3C(N)=O)c2)CC1 [Compound 31],< 500,–
Cc1cccc(CCC(=O)N2CCN(C(=O)c3cccc(CCOc4ccccc4C(N)=O)c3)CC2)c1 [Compound 164],< 100,–
CC(Oc1ccccc1)C(=O)N1CCN(C(=O)c2cccc(CCOc3ccccc3C(N)=O)c2)CC1 (centres unmarked) [Compound 167],< 500,–
NC(=O)c1ccccc1OCCc1ccc(F)c(C(=O)N2CCN(C(=O)c3ccc4c(c3)OCO4)CC2)c1 [Compound 190],–,< 1000
NC(=O)c1ccccc1OCCc1cccc(C(=O)N2CCN(S(=O)(=O)c3cc4ccccc4s3)CC2)c1 [Compound 160],< 500,–
NC(=O)c1ccccc1OCc1cccc(C(=O)N2CCN(C(=O)COCc3ccccc3)CC2)c1 [Compound 55],< 500,–
CCCCCCCCNC(=O)N1CCN(C(=O)c2cccc(COc3ccccc3C(N)=O)c2)CC1 [Compound 32],< 500,–
NC(=O)c1ccccc1OCc1cccc(C(=O)N2CCN(C(=O)c3ccno3)CC2)c1 [Compound 56],< 500,–
NC(=O)c1ccccc1OCCc1cccc(C(=O)N2CCN(S(=O)(=O)c3csc4ccccc34)CC2)c1 [Compound 161],< 500,–
NC(=O)c1ccccc1OCc1cccc(C(=O)N2CCN(C(=O)c3ccc(OC(F)(F)F)cc3)CC2)c1 [Compound 54],< 500,–
NC(=O)c1ccccc1OCc1cccc(C(=O)N2CCN(S(=O)(=O)c3ccccc3)CC2)c1 [Compound 36],< 1000,–
COc1cccc(CC(=O)N2CCN(C(=O)c3cccc(COc4ccccc4C(N)=O)c3)CC2)c1OC [Compound 58],< 500,–
NC(=O)c1ccccc1OCc1cccc(C(=O)NC2=NCCS2)c1 [Compound 10],< 10000,–

# Continued, in another order:
IC50 [1] [nM],Compound,IC50 [nM]
< 100,Cc1cccc(CCC(=O)N2CCN(C(=O)c3cc(COc4ccccc4C(N)=O)ccc3F)CC2)c1 [Compound 78],–
< 100,Cc1ccccc1NC(=O)N1CCN(C(=O)c2cc(COc3ccc(F)cc3C(N)=O)ccc2F)CC1 [Compound 209],–
< 500,NC(=O)c1ccccc1OCCc1cccc(C(=O)N2CCN(C(=O)C3CCCCC3)CC2)c1 [Compound 166],–
< 100,NC(=O)c1cc(F)ccc1OCc1ccc(F)c(C(=O)N2CCN(C(=O)Nc3ccc(F)cc3)CC2)c1 [Compound 208],–
< 100,Cc1cc(C)cc(NC(=O)N2CCN(C(=O)c3cc(COc4ccc(F)cc4C(N)=O)ccc3F)CC2)c1 [Compound 210],–
< 100,NC(=O)c1ccccc1OCCc1ccc(F)c(C(=O)N2CCN(C(=O)C3CCCCC3)CC2)c1 [Compound 187],–
< 500,NC(=O)c1ccccc1OCc1cccc(C(=O)N2CCN(C(=O)c3ccc(F)cc3F)CC2)c1 [Compound 51],–
< 100,NC(=O)c1cc(F)ccc1OCc1ccc(F)c(C(=O)N2CCN(C(=O)Nc3ccccc3-c3ccccc3)CC2)c1 [Compound 211],–
< 100,NC(=O)c1cc(F)ccc1OCc1ccc(F)c(C(=O)N2CCN(C(=O)Nc3ccccc3F)CC2)c1 [Compound 214],–
< 100,NC(=O)c1cc(F)ccc1OCc1ccc(F)c(C(=O)N2CCN(C(=O)Nc3cccc(F)c3)CC2)c1 [Compound 205],–
< 100,NC(=O)c1ccccc1OCc1ccc(F)c(C(=O)N2CCN(C(=O)Nc3ccccc3F)CC2)c1 [Compound 72],–
< 500,NC(=O)c1ccccc1OCc1cccc(C(=O)N2CCN(C(=O)C3CCCCC3)CC2)c1 [Compound 52],–
< 100,Cc1cc(C)cc(NC(=O)N2CCN(C(=O)c3cc(COc4ccccc4C(N)=O)ccc3F)CC2)c1 [Compound 74],–
< 100,Cc1ccc(NC(=O)N2CCN(C(=O)c3cc(COc4ccc(F)cc4C(N)=O)ccc3F)CC2)cc1 [Compound 199],–
< 100,NC(=O)c1cc(F)ccc1OCc1ccc(F)c(C(=O)N2CCN(C(=O)NC34CC5CC(CC(C5)C3)C4)CC2)c1 [Compound 207],–
< 500,CN(C)CC(=O)N1CCN(C(=O)c2cc(COc3ccccc3C(N)=O)ccc2F)CC1 [Compound 81],–
< 1000,CC(=O)N1CCN(C(=O)c2cccc(COc3ccccc3C(N)=O)c2)CC1 [Compound 47],–
< 100,NC(=O)c1cc(F)ccc1OCc1ccc(F)c(C(=O)N2CCN(C(=O)Nc3ccc(C(F)(F)F)cc3)CC2)c1 [Compound 206],–
< 500,NC(=O)c1ccccc1OCc1cccc(C(=O)N2CCN(C(=O)C3CCCC3)CC2)c1 [Compound 46],–

IC50 [1] [nM],Compound,IC50 [nM]
< 100,Cc1cccc(CCC(=O)N2CCN(C(=O)c3cc(CCOc4ccccc4C(N)=O)ccc3F)CC2)c1 [Compound 185],–
< 500,NC(=O)c1ccccc1OCc1cccc(C(=O)N2CCN(C(=O)Nc3cccc(F)c3)CC2)c1 [Compound 30],–
< 500,NC(=O)c1ccccc1OCCc1ccc(F)c(C(=O)N2CCN(C(=O)C3CCC3)CC2)c1 [Compound 189],–
< 100,COc1ccccc1NC(=O)N1CCN(C(=O)c2cc(COc3ccccc3C(N)=O)ccc2F)CC1 [Compound 73],–
< 100,NC(=O)c1ccccc1OCc1ccc(F)c(C(=O)N2CCN(S(=O)(=O)Cc3ccccc3)CC2)c1 [Compound 75],–
< 1000,NC(=O)c1ccccc1OCc1cccc(C(=O)N2CCN(C(=O)C3CC3)CC2)c1 [Compound 49],–
< 500,NC(=O)c1ccccc1OCc1cccc(C(=O)N2CCN(C(=O)N3CCOCC3)CC2)c1 [Compound 50],–
< 100,NC(=O)c1cc(F)ccc1OCc1ccc(F)c(C(=O)N2CCN(C(=O)NC3CCCCC3)CC2)c1 [Compound 202],–
< 500,NC(=O)c1ccccc1OCCc1ccc(F)c(C(=O)N2CCN(C(=O)NCCc3ccccc3)CC2)c1 [Compound 184],–
< 100,N#Cc1cccc(NC(=O)N2CCN(C(=O)c3cc(COc4ccc(F)cc4C(N)=O)ccc3F)CC2)c1 [Compound 212],–
< 100,NC(=O)c1cc(F)ccc1OCc1ccc(F)c(C(=O)N2CCN(C(=O)Nc3cccc(C(F)(F)F)c3)CC2)c1 [Compound 204],–
< 100,Cc1cccc(NC(=O)N2CCN(C(=O)c3cc(COc4ccc(F)cc4C(N)=O)ccc3F)CC2)c1 [Compound 203],–
< 500,NC(=O)c1ccccc1OCc1cccc(C(=O)N2CCN(C(=O)c3cccc(F)c3)CC2)c1 [Compound 48],–
< 500,NC(=O)c1ccccc1OCc1cccc(C(=O)N2CCN(C(=O)c3ccccc3F)CC2)c1 [Compound 62],–
< 500,CC(=O)N1CCC(C(=O)N2CCN(C(=O)c3cc(CCOc4ccccc4C(N)=O)ccc3F)CC2)CC1 [Compound 191],–
< 100,NC(=O)c1cc(F)ccc1OCc1ccc(F)c(C(=O)N2CCN(C(=O)C3CCCCC3)CC2)c1 [Compound 217],–
< 100,CCCCCCCCNC(=O)N1CCN(C(=O)c2cc(COc3ccc(F)cc3C(N)=O)ccc2F)CC1 [Compound 213],–
< 1000,CC(C)NC(=O)N1CCN(C(=O)c2cccc(COc3ccccc3C(N)=O)c2)CC1 [Compound 26],–

# Like-named read-outs stand apart in the source and are kept apart here.
